Measured values: PMC4336329 (PLoS ONE, 2015)
Screen size: about 310,000 compounds; about 2,200 (0.71%) showed an effect of 50% or more. The effect is printed as a negative number. Some of the results follow.

Molecular target: human ether-à-go-go-related gene (hERG) potassium channel (human, UniProt Q12809)
Test: primary screen, population patch clamp on CHO cells stably expressing hERG

Chain of human ether-à-go-go-related gene (hERG) potassium channel (Q12809 whole entry, looked up): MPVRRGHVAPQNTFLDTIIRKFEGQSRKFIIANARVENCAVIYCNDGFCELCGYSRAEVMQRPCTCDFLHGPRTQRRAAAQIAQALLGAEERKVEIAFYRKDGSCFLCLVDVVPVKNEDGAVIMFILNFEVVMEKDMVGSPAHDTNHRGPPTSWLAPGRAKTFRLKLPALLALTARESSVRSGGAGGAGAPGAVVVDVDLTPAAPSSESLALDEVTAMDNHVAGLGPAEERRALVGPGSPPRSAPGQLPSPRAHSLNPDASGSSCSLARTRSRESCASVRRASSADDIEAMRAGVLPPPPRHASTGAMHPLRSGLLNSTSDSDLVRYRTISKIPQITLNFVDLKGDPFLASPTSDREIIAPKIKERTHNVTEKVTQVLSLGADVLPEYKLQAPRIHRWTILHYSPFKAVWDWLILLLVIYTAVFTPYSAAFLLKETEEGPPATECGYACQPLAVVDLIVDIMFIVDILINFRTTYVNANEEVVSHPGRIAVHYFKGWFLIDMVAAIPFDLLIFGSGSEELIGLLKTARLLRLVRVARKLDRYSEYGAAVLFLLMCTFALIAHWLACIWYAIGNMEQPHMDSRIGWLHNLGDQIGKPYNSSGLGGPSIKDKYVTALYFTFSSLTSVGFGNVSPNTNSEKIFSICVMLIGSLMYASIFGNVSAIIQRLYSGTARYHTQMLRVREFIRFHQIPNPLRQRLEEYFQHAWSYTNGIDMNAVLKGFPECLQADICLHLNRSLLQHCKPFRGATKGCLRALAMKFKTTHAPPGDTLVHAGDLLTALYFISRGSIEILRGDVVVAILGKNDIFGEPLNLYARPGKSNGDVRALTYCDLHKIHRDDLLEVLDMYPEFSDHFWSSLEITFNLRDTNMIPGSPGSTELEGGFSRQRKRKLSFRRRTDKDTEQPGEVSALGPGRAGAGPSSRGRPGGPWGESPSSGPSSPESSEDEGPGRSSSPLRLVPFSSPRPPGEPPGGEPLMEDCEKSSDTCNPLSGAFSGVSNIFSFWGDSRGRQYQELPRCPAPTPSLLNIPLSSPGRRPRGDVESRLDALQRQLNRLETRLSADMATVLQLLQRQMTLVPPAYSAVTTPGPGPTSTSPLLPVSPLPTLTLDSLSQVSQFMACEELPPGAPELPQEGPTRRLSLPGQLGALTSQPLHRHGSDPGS

| SMILES | hERG current change (%, negative = inhibition) at 1uM [%] |
| --- | --- |
| Cc1ccc(C2=NOC(=O)/C2=C\c2ccccc2)cc1 | 12.1 |
| CC(=O)Nc1ccc(C2=CC(=O)C[C@H](c3ccc(Cl)cc3)C2)cc1 | 9.52 |
| COc1ccc(-c2cc(C)no2)cc1S(=O)(=O)NCC(C)c1ccccc1 (stereo not shown) | 8.4 |
| CN(C)/C=N/c1cc(=O)n(C)c(=O)n1Cc1ccccc1 | 14.5 |
| Cc1ccccc1C(=O)Nc1ccccc1-n1cccc1 | 12.3 |
| Cc1ccccc1C(=O)NNC(=O)c1ccc2nc[nH]c2c1 | 15.8 |
| COc1nc(N/N=C/c2ccccc2F)nc(N2CCCCC2)n1 | -5.82 |
| COc1ccccc1N1CCN(C2CCC(C)CC2)CC1 (stereo not shown) | 14.4 |
| O=C(CSCc1cccc(Br)c1)N1CCOCC1 | 6.93 |
| COc1cc(NC(=O)N[C@@H](CCSC)C(=O)O)cc(OC)c1 | 8.19 |
| O=C(Nc1cccc(Cl)c1)N1CCN2C(=O)c3ccccc3C12c1ccccc1 (stereo not shown) | 7.7 |
| COc1ccc(NC(=O)COc2cccc3c2CCN(Cc2cccnc2)C3=O)c(OC)c1 | -4.67 |
| COc1ccc(NC(=O)C2CCCN2C(=O)NC2CCCCC2)cc1OC (stereo not shown) | 4.54 |
| COc1ccc(C(c2nnnn2Cc2ccccc2)N2CCN(c3ccccc3)CC2)cc1.Cl (stereo not shown) | 9.8 |
| CC(NC(=O)c1cccc(C(F)(F)F)c1)C(c1ccccc1)N1CCOCC1 (stereo not shown) | 8.37 |
| CN(C)c1ccc(/C=C2\N=C(c3ccc(Cl)c([N+](=O)[O-])c3)NC2=O)cc1 | 12.4 |
| CCCCNC(=O)N1c2ccccc2CC1C (stereo not shown) | 12.9 |
| Cc1ccc(C(=O)NCC(=O)N2CCC3(CC2)NCCc2[nH]cnc23)cc1C | 13.4 |
| CCOC(=O)c1ccc(NS(=O)(=O)c2ccc(SC)cc2)cc1 | 10.5 |
| O=C(COc1ccc(Cl)cc1Cl)NN1C(=O)C2C3C=CC([C@@H]2C1=O)C31CC1 (stereo partly shown) | 15 |

| SMILES | hERG current change (%, negative = inhibition) at 1uM [%] |
| --- | --- |
| O=C(Nc1ccccc1Cl)C(=O)c1cn(CC(=O)N2CCOCC2)c2ccccc12 | 4.51 |
| O=C(O)c1ccccc1C(=O)OCCCCOC(=O)c1ccccc1C(=O)O | 2.08 |
| CCOCc1cc(C2NC(=O)NC(C)=C2C(=O)OCC)ccc1OC (stereo not shown) | 1.25 |
| CCOC(=O)C1(Cc2ccccc2C(F)(F)F)CCN(C2CCN(C(C)=O)CC2)CC1 | -1.48 |
| Cc1ccc(CNC(=O)COC(=O)c2nc(-c3ccccc3)oc2C)cc1 | 3.64 |
| CC(=O)Nc1sc(NC(=O)c2ccccc2)nc1-c1cccs1 | 11 |
| CC(=O)N1c2ccccc2C2CCCC[C@H]21 (stereo partly shown) | 17.7 |
| O=C(Oc1ccc(OC(=O)N2CCCCC2)cc1)N1CCCCC1 | 8.84 |
| C=CCOc1ccc(/C=C/C(=O)OCC(=O)NC2CCCCCC2)cc1 | -5.36 |
| Cc1cc(C)nc(CCNC(=O)c2cc(COc3c(F)cccc3F)on2)n1 | 9.91 |
| CCOC(=O)N1CCC(N(CCN(C)C)C(=S)Nc2cccc(C)c2)CC1 | 12.6 |
| CC(=O)Nc1nnc(SCC(=O)NC(C)(C)C)s1 | 4.5 |
| CC(C)N(C(=O)CSc1n[nH]c(=O)n1CCc1ccccc1)C(C)C | 9.05 |
| COc1ccc(-c2nc3ccncc3[nH]2)cc1OC.Cl | 10.1 |
| COc1ccc(OC)c(C(C)NC(=O)C23CC4CC(CC(C4)C2)C3)c1 (stereo not shown) | 15.8 |
| COC(=O)c1cc(OC)c(OC)cc1NC(=O)c1ccc(OC)cc1 | 5.44 |
| CC(C)CN(C(=O)COC(=O)c1cccn1C)c1c(N)n(Cc2ccccc2)c(=O)[nH]c1=O | 16.6 |
| Cc1cnc(C(=O)OCC(=O)c2c(N)n(CC(C)C)c(=O)n(C)c2=O)cn1 | 4.36 |
| CCOc1ccc(S(=O)(=O)N2CCOCC2)cc1NC(=O)C1CSC2(C)CCC(=O)N12 (stereo not shown) | 3.78 |
| CCc1n[nH]c(=S)n1/N=C/c1ccccc1OCc1ccc(Cl)cc1 | 17.1 |

| SMILES | hERG current change (%, negative = inhibition) at 1uM [%] |
| --- | --- |
| CCCCCCCNC(=O)c1cc(-c2ccncc2)nc2ccccc12 | 15.4 |
| O=C(CSc1cccc2cccc(Cl)c12)NCc1cccs1 | 8.04 |
| Cc1cccc(C)c1NC(=S)N(CCCN1CCOCC1)Cc1cccnc1 | 9.28 |
| CCN(CC)C(=S)SCC(=O)Nc1ccc(F)cc1 | 1.48 |
| COCCN(C(=O)COC(=O)c1ccc(C=O)cc1)c1c(N)n(Cc2ccccc2)c(=O)[nH]c1=O | 7.21 |
| COc1ccccc1/C=N/Nc1nc(C)c(C(C)=O)s1 | 11.6 |
| O=C(CCc1nc(-c2cccs2)no1)NCc1ccc(F)cc1Cl | -3.46 |
| O=C(CSc1ncnc2nc[nH]c12)Nc1ccccc1C(F)(F)F | 10.8 |
| CC(=O)c1ccc(NC(=O)COC(=O)C2C3CC4OC(=O)C2C4C3)cc1 (stereo not shown) | 10.8 |
| COc1ccc(CCN=C(NS(=O)(=O)c2ccccc2)c2ccccc2)cc1OC | 14.6 |
| N#Cc1ccccc1NC(=O)CN1C(=O)NC(Cc2c[nH]c3ccccc23)C1=O (stereo not shown) | 4.34 |
| O=C(Nc1cccs1)Nc1c(F)c(F)c(F)c(F)c1F | -34.5 |
| CC(C)c1ccccc1NS(=O)(=O)c1cccs1 | 10.9 |
| CCOC(=O)CC(NC(=O)CCc1c(C)nc2ncnn2c1C)c1ccc(C)cc1 (stereo not shown) | 7.89 |
| O=C(N/N=C/c1ccc(N2CCCCC2)o1)c1ccccc1 | 10.7 |
| CC(=O)Nc1ccc(NCc2cccs2)cc1 | 12.5 |
| CC(C)=CCN1CCN(Cc2cn(C(C)C)c3ccccc23)CC1CCO (stereo not shown) | 4.15 |
| O=C(OCC(=O)c1c[nH]c2ccccc12)c1ccc([N+](=O)[O-])s1 | 7.46 |
